Source: the RNAGym collection of RNA variant scans (doi:10.1073/pnas.2313332121)
This sample is rich in variants without activity.

B1: TPR 5TU (parent)
chain: GGAUCUUCUCGAUCUAACAAAAAAGACAAAUCUGCCACAAAGCUUGAGAGCAUCUUCGGAUGCAGAGGCGGCAGCCUUCGGUGGCGCGAUAGCGCCAACGUUCUCAACUAUGACACGCAAAACGCGUGCUCCGUUGAAUGGAGUUUAUCAUG

Variants of: B1
Assay: polymerase ribozyme fitness, log enrichment relative to wild type (log ratio); higher = more active; in vitro selection for triplet polymerase activity
Outline: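 Mutant libraries for each subunit of a heterodimeric triplet polymerase ribozyme were made by PCR and then transcribed. Each library underwent one round of in vitro selection in triplicate: annealing with a biotinylated primer, the partner subunit and triplets, frozen incubation at −7 °C, gel excision of extended constructs, streptavidin-bead capture and RT-PCR. Input and output libraries were Illumina-sequenced, and only genotypes with ≥10 input reads and ≥1 read per output were kept. Fitness is the logarithm, base 2, of genotype enrichment over wild-type enrichment, computed from inverse-variance-weighted replicate averages.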

Variant | polymerase ribozyme fitness (log ratio)
GGAUCUUCUCGAUCUAACAAAAAAGACAAAUCUGCCACAAAGCUUGAGAGCAUCUUCGGAUGCAGAGGCGGCAGCCUUCGGUGGCGCGAUAGCGCCAACGUUCUCAACUAUGACACGCAAAACGCGUGCUCCGUUGAAGGGAGUUUAUGAUG [U139G C149G] | -3.88
GGAUCUUCUCGAUCUAACAAAAAAGACAAAUCUGCCACAAAGCUUGAGAGCAUCUUCGGAUGCAGAGGCGGCAGCCUUCGGUGGCGCGAUAGCGCCAACGUUCUCAACUAUGACACGCAAAACGCGUGCUCCGUUGAAGGGAGUAUAUCUGG [U139G U145A A150U U151G] | ≤ -4.2
GGAUCUUCUCGAUCUAACAAAAAAGACAAAUCUGCCACAAAGCUUGAGAGCAUCUUCGGAUGCAGAGGCGGCAGCCUUCGGUGGCGCGAUAGCGCCAACGUUCUCAACUAUGACACGCAAAACGCGUGCUCCGUUGAAGGGAGUUUAACAUG [U139G U148A] | -2.73
GGAUCUUCUCGAUCUAACAAAAAAGACAAAUCUGCCACAAAGCUUGAGAGCAUCUUCGGAUGCAGAGGCGGCAGCCUUCGGUGGCGCGAUAGCGCCAACGUUCUCAACUAUGACACGCAAAACGCGUGCUCCGUUGAAUAGAGUUUAUCAUG [G140A] | -2.67
GGAUCUUCUCGAUCUAACAAAAAAGACAAAUCUGCCACAAAGCUUGAGAGCAUCUUCGGAUGCAGAGGCGGCAGCCUUCGGUGGCGCGAUAGCGCCAACGUUCUCAACUAUGACACGCAAAACGCGUGCUCCGUUGAAUAGAGUUUAUCAGG [G140A U151G] | ≤ -4.2
GGAUCUUCUCGAUCUAACAAAAAAGACAAAUCUGCCACAAAGCUUGAGAGCAUCUUCGGAUGCAGAGGCGGCAGCCUUCGGUGGCGCGAUAGCGCCAACGUUCUCAACUAUGACACGCAAAACGCGUGCUCCGUUGAAUCGAGUUUAUCAUG [G140C] | -3.16
GGAUCUUCUCGAUCUAACAAAAAAGACAAAUCUGCCACAAAGCUUGAGAGCAUCUUCGGAUGCAGAGGCGGCAGCCUUCGGUGGCGCGAUAGCGCCAACGUUCUCAACUAUGACACGCAAAACGCGUGCUCCGUUGAAUCGAGGUUAUCAUG [G140C U144G] | -3.51
GGAUCUUCUCGAUCUAACAAAAAAGACAAAUCUGCCACAAAGCUUGAGAGCAUCUUCGGAUGCAGAGGCGGCAGCCUUCGGUGGCGCGAUAGCGCCAACGUUCUCAACUAUGACACGCAAAACGCGUGCUCCGUUGAAUUGAGUUUAUCAUG [G140U] | -2.62
GGAUCUUCUCGAUCUAACAAAAAAGACAAAUCUGCCACAAAGCUUGAGAGCAUCUUCGGAUGCAGAGGCGGCAGCCUUCGGUGGCGCGAUAGCGCCAACGUUCUCAACUAUGACACGCAAAACGCGUGCUCCGUUGAAUUCAGUUUAUCAUG [G140U G141C] | -3.07
GGAUCUUCUCGAUCUAACAAAAAAGACAAAUCUGCCACAAAGCUUGAGAGCAUCUUCGGAUGCAGAGGCGGCAGCCUUCGGUGGCGCGAUAGCGCCAACGUUCUCAACUAUGACACGCAAAACGCGUGCUCCGUUGAAUUGAGUUUAGCAUG [G140U U148G] | ≤ -4.2
GGAUCUUCUCGAUCUAACAAAAAAGACAAAUCUGCCACAAAGCUUGAGAGCAUCUUCGGAUGCAGAGGCGGCAGCCUUCGGUGGCGCGAUAGCGCCAACGUUCUCAACUAUGACACGCAAAACGCGUGCUCCGUUGAAUGAAGUUUAUGAUG [G141A C149G] | -4.13
GGAUCUUCUCGAUCUAACAAAAAAGACAAAUCUGCCACAAAGCUUGAGAGCAUCUUCGGAUGCAGAGGCGGCAGCCUUCGGUGGCGCGAUAGCGCCAACGUUCUCAACUAUGACACGCAAAACGCGUGCUCCGUUGAAUGCAGUUUAUCGUG [G141C A150G] | -3.78
GGAUCUUCUCGAUCUAACAAAAAAGACAAAUCUGCCACAAAGCUUGAGAGCAUCUUCGGAUGCAGAGGCGGCAGCCUUCGGUGGCGCGAUAGCGCCAACGUUCUCAACUAUGACACGCAAAACGCGUGCUCCGUUGAAUGCACUUUAUCAUG [G141C G143C] | ≤ -4.2
GGAUCUUCUCGAUCUAACAAAAAAGACAAAUCUGCCACAAAGCUUGAGAGCAUCUUCGGAUGCAGAGGCGGCAGCCUUCGGUGGCGCGAUAGCGCCAACGUUCUCAACUAUGACACGCAAAACGCGUGCUCCGUUGAAUGCAGUUUAACAUG [G141C U148A] | ≤ -4.2
GGAUCUUCUCGAUCUAACAAAAAAGACAAAUCUGCCACAAAGCUUGAGAGCAUCUUCGGAUGCAGAGGCGGCAGCCUUCGGUGGCGCGAUAGCGCCAACGUUCUCAACUAUGACACGCAAAACGCGUGCUCCGUUGAAUGUAAUUUAUCAUG [G141U G143A] | -2.79
GGAUCUUCUCGAUCUAACAAAAAAGACAAAUCUGCCACAAAGCUUGAGAGCAUCUUCGGAUGCAGAGGCGGCAGCCUUCGGUGGCGCGAUAGCGCCAACGUUCUCAACUAUGACACGCAAAACGCGUGCUCCGUUGAAUGGACUGUAUCAUG [G143C U145G] | -1.8
GGAUCUUCUCGAUCUAACAAAAAAGACAAAUCUGCCACAAAGCUUGAGAGCAUCUUCGGAUGCAGAGGCGGCAGCCUUCGGUGGCGCGAUAGCGCCAACGUUCUCAACUAUGACACGCAAAACGCGUGCUCCGUUGAAUGGAUUUUAUCAUA [G143U G152A] | -3.69
GGAUCUUCUCGAUCUAACAAAAAAGACAAAUCUGCCACAAAGCUUGAGAGCAUCUUCGGAUGCAGAGGCGGCAGCCUUCGGUGGCGCGAUAGCGCCAACGUUCUCAACUAUGACACGCAAAACGCGUGCUCCGUUGAAUGGAGCCUAUCAUG [U144C U145C] | -0.39
GGAUCUUCUCGAUCUAACAAAAAAGACAAAUCUGCCACAAAGCUUGAGAGCAUCUUCGGAUGCAGAGGCGGCAGCCUUCGGUGGCGCGAUAGCGCCAACGUUCUCAACUAUGACACGCAAAACGCGUGCUCCGUUGAAUGGAGGAUAUCAUG [U144G U145A] | 0.571
GGAUCUUCUCGAUCUAACAAAAAAGACAAAUCUGCCACAAAGCUUGAGAGCAUCUUCGGAUGCAGAGGCGGCAGCCUUCGGUGGCGCGAUAGCGCCAACGUUCUCAACUAUGACACGCAAAACGCGUGCUCCGUUGAAUGGAGUCUAUAAUG [U145C C149A] | ≤ -4.2
GGAUCUUCUCGAUCUAACAAAAAAGACAAAUCUGCCACAAAGCUUGAGAGCAUCUUCGGAUGCAGAGGCGGCAGCCUUCGGUGGCGCGAUAGCGCCAACGUUCUCAACUAUGACACGCAAAACGCGUGCUCCGUUGAAUGGAGUUCAUCAGG [U146C U151G] | ≤ -4.2
GGAUCUUCUCGAUCUAACAAAAAAGACAAAUCUGCCACAAAGCUUGAGAGCAUCUUCGGAUGCAGAGGCGGCAGCCUUCGGUGGCGCGAUAGCGCCAACGUUCUCAACUAUGACACGCAAAACGCGUGCUCCGUUGAAUGGAGUUUUACAUG [A147U U148A] | -2.81
GGAUCUUCUCGAUCUAACAAAAAAGACAAAUCUGCCACAAAGCUUGAGAGCAUCUUCGGAUGCAGAGGCGGCAGCCUUCGGUGGCGCGAUAGCGCCAACGUUCUCAACUAUGACACGCAAAACGCGUGCUCCGUUGAAUGGAGUUUAUCGUG [A150G] | -0.734
GGAUCUUCUCGAUCUAACAAAAAAGACAAAUCUGCCACAAAGCUUGAGAGCAUCUUCGGAUGCAGAGGCGGCAGCCUUCGGUGGCGCGAUAGCGCCAACGUUCUCAACUAUGACACGCAAAACGCGUGCUCCGUUGAAUGGAGUUUAUCUUG [A150U] | 1.3
